In article PMC5892938:
This is one part of the list. At the low end of the ranking the order means little.

biological target: GST-SBP-SLBP (stem-loop binding protein) (UniProt Q14493); experiment: targeted RNA Bind-n-Seq; settings: RBNS binding buffer: 25 mM Tris pH 7.5, 150 mM KCl, 3 mM MgCl2, 0.1% Tween, 0.5 mg/mL BSA, 1 mM DTT; 27 nM protein, 750 pM RNA pool; temperature not stated; high values mean tight binding;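 also: DESeq read counts versus GST-SBP nonspecific binding control pulldown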

Sequence | binding signal (log2 fold change)
GGUCACGUCUCAAUCAACUCUUUCUCCAGGGAAACCCCUGGCAUGUUCAACAGCUCGCAGUCAAG | -0.0552
GGUCACGUCUCAAUCAACUCUUUCGCAGGAGUUUUCUCCUGGUAUUUCAACAGCUCGCAGUCAAG | -0.0277
GGUCACGUCUCAAUCAACUCUCUAGAGGGGGGGAAAACCCCUUUGCCCUCAUUAUCAACAGCUCGCAGUCAAG | -0.0197
GGUCACGUCUCAAUCAACUCUUUUUCAGGAGUUUACUCCUGCUUUUUCAACAGCUCGCAGUCAAG | 0.029
GGUCACGUCUCAAUCAACUCAAUCCCCAGGGAAAACCCUGGCAAAUUCAACAGCUCGCAGUCAAG | 0.134
GGUCACGUCUCAAUCAACUCAACUUCCAGGGAAAGCCCUGGCAUUCUCAACAGCUCGCAGUCAAG | 0.276
GGUCACGUCUCAAUCAACUCUUCUUCCAGGGAAAACCCUGGUUAUGUCAACAGCUCGCAGUCAAG | -0.117
GGUCACGUCUCAAUCAACUCUUCUUCAGGAGUUUUCUCCUGUUAAUUCAACAGCUCGCAGUCAAG | -0.225
GGUCACGUCUCAAUCAACUCUAUCCCAGGAGUUUACUCCUGCUUUCUCAACAGCUCGCAGUCAAG | -0.00403
GGUCACGUCUCAAUCAACUCAAACGAGGGGGGGAAAACCCCUUUGCCCUCAUAAUCAACAGCUCGCAGUCAAG | -0.186
GGUCACGUCUCAAUCAACUCAUUCGAGGGGGGGAAAACCCCUUUACCCUCAUCAUCAACAGCUCGCAGUCAAG | -0.0259
GGUCACGUCUCAAUCAACUCCUACGAGGGGGGGAAAACCCCUUUACCCUCAUUUUCAACAGCUCGCAGUCAAG | 0.0386
GGUCACGUCUCAAUCAACUCUAUCCCAGGAGUUUACUCCUGUUAUCUCAACAGCUCGCAGUCAAG | -0.152
GGUCACGUCUCAAUCAACUCAUCCCCCAGGGAAAACCCUGGUAAUUUCAACAGCUCGCAGUCAAG | 0.0912
GGUCACGUCUCAAUCAACUCUUUCCCAGGAGUUUCCUCCUGUUAUUUCAACAGCUCGCAGUCAAG | 0.0625
GGUCACGUCUCAAUCAACUCAUUCCCAGGAGUUUCCUCCUGCAUUCUCAACAGCUCGCAGUCAAG | 0.167
GGUCACGUCUCAAUCAACUCAAUCCCAGGAGUUUCCUCCUGUUUUCUCAACAGCUCGCAGUCAAG | 0.175
GGUCACGUCUCAAUCAACUCAACUUCCAGGGAAACCCCUGGCUUUUUCAACAGCUCGCAGUCAAG | -0.191
GGUCACGUCUCAAUCAACUCUUCUCCAGGAGUUUCCUCCUGUUAAUUCAACAGCUCGCAGUCAAG | 0.0103
GGUCACGUCUCAAUCAACUCAUCCUCCAGGGAAACCCCUGGCUAACUCAACAGCUCGCAGUCAAG | -0.0308
GGUCACGUCUCAAUCAACUCAUCCUCAGGAGUUUCCUCCUGCAUAUUCAACAGCUCGCAGUCAAG | 0.216
